SMILES strings stand for the structures. The whole screen tested about 50,000 compounds, of which about 800 (1.6%) showed an effect of 50% or more. This is one part of the list.

In the experiment the target is Bcl-2-like protein 10 (Homo sapiens) (UniProt Q9HD36). Nature of the experiment: Phenotype converters, Bcl-B/TR3 peptide binding displacement, primary biochemical FP (AID 1240).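 Also: 0% = Bcl-B with tracer peptide and DMSO and 100% = tracer peptide lacking Bcl-B.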 As to conditions: GST-Bcl-B / FITC-TR3 peptide fluorescence polarization; stronger effect = higher value; compound at 3.75 mg/L.
Chain of UniProt Q9HD36 (Q9HD36 whole entry, looked up): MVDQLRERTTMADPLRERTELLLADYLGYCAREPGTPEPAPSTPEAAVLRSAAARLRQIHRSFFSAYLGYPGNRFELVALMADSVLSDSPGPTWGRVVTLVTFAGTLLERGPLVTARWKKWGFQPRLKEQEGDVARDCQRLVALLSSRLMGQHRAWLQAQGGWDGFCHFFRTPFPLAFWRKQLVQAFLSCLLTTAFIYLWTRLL
As to `COc1cc(C(=O)NN2C(=O)/C(=C/c3ccc(OC)c(OC)c3)SC2=S)ccc1O`, the displacement is -28.1%.
`CCOC(=O)c1sc(NC(=O)C2c3ccccc3Oc3ccccc32)c(C(N)=O)c1C`: the displacement amounted to 4.7%.
In the case of `COC(=O)C(C)N(C(=O)c1cccc(Cl)c1)c1c(C)cccc1C` (centres undefined), the displacement was 12.9%.
As for `COc1cc(OC)c(-c2nc(-c3ccccc3)c(-c3ccc([N+](=O)[O-])cc3)[nH]2)cc1OC`, the displacement is 1.8%.
Consider `COc1cccc(/C=C2\SC(=O)N(CCC(=O)Nc3ccc(Br)cc3)C2=O)c1`, for which the displacement came out at 1.9%.
In the case of `c1n[nH]c(NCc2ccc3c(c2)OCO3)n1`, the displacement was 10%.
The value for `COc1ccc(N(Cc2ccc(C(=O)NC3CCCCC3)cc2)S(=O)(=O)c2ccccc2)cc1` was 2.9%; that for `CCOC(=O)C1=C(C)NC(C)=C(C(=O)OC)C1c1ccc(Cl)cc1` (centres undefined) was 3.3%.
Turning to `COc1ccccc1CC(=O)Nc1cccc(Br)c1`, the displacement came out at 9.7%.
For `CCCC(=O)C1C(=O)CC(C)(C)C1C(=O)OC` (centres undefined), the displacement is -9.6%.
For `COC(=O)c1ccn(C(=O)c2ccc(Cl)cc2)n1` the value was -1%; for `O/C(=C/c1nc2ccccc2nc1/C=C(/O)c1ccccc1)c1ccccc1`, 13.6%.
With `CC(Cc1ccccc1)NC(=O)c1cc2ccccc2o1` (centres undefined), the displacement is -14%.
Consider `CCC1C(c2ccc(Cl)cc2)NC(c2ccc(Cl)cc2)C(CC)C1O` (centres undefined), for which the displacement was -9%.
On to `CCCOc1cccc(-c2nc3cc(OC)c(OC)cc3c(=O)o2)c1`, for which the displacement amounted to 0.4%.
The value for `O=C(/C=C/c1ccc(Cl)cc1)Nc1ccc(Cc2ccncc2)cc1` was -5.8%.
For `COc1cc(/C=c2\sc3nc4ccccc4n3c2=O)cc(I)c1OCC(=O)O` the value was -4.2%; for `COc1cc(-c2noc(/C=C/c3ccccc3)n2)cc(OC)c1OC`, 17.2%.
For `Cc1cc([N+](=O)[O-])ccc1N1C(=O)c2ccccc2C1=O`, the displacement turned out to be 5.9%.
`N#C/C(=C\c1ccc(-c2ccccc2[N+](=O)[O-])o1)C(=O)Nc1cccc(Br)c1`: the displacement was -6.3%.
For `O=Cc1cccc(OCc2ccc(Cl)cc2Cl)c1` the value was 3.8%; for `C=CCNc1nc(-c2ccccc2)cs1`, -26.4%.
Consider `Cn1c(-c2cccc(Cl)c2)n[nH]c1=S`, for which the displacement amounted to 13.1%.
As for `Cc1ccc2c(Cl)c(C(=O)Nc3nc(-c4ccccc4)cs3)sc2c1`, the displacement was -16.7%.
The value for `O=c1/c(=C\c2ccc(OCc3ccc([N+](=O)[O-])cc3)cc2)sc2nc3ccccc3n12` was 4.5%; that for `CC(C)C(C(=O)Nc1ccc(F)cc1)N1C(=O)c2ccccc2C1=O` (centres undefined) was -5.3%.
The value for `Cc1ccc(CSc2nnc(-c3cccc(F)c3)n2-c2ccccc2)cc1` was 2.8%.
As to `O=C1c2ccccc2NC(c2ccc3c(c2)OCO3)N1Cc1ccccc1` (centres undefined), the displacement was determined as 10.9%.
Take `Cc1cc(C)nc(NS(=O)(=O)c2ccc(NC(=O)c3cc4cc([N+](=O)[O-])ccc4s3)cc2)n1`: the displacement is 13.7%.
Regarding `O=C1ON=C(c2ccccc2)/C1=C\c1ccccc1OCc1ccccc1`, the displacement is -2.2%.
On to `CCOC(=O)C(CCCCOc1ccc(Cl)cc1)C(=O)OCC`, for which the displacement is 8.5%.
For `COc1ccccc1N1C(=O)NC(=O)/C(=C\c2cc3ccccc3n2C)C1=O`, the displacement was found to be 165%.
`Cc1cccc(NS(=O)(=O)c2ccc([N+](=O)[O-])cc2)c1C`: the displacement is -13.5%.
The value for `COc1ccc(C(=O)NC2CCCCC2)cc1S(=O)(=O)N1CCOCC1` was -5.1%; that for `O=c1[nH]c(=O)n(-c2ccc(Br)cc2)c(O)c1C=C1C=CC=N1` was 123%.
Consider `Cc1cccc(C(=O)Nc2sc3c(c2C(=O)N2CCCCCC2)CCCCC3)c1`, for which the displacement was -10%.
In the case of `COc1ccc(-c2cc(C(F)(F)F)n3ncc(C(=O)NC(C)C)c3n2)cc1`, the displacement turned out to be 0.3%.
`CC(=O)CC(=O)Nc1cc(Cl)ccc1C`: the displacement stood at 6.8%.
With `COc1ccccc1C(=O)Nc1ccc(Br)cc1F`, the displacement is -2.7%.
As to `COc1ccc(S(=O)(=O)N2CCN(Cc3ccc(C)cc3)CC2)cc1`, the displacement is -11.9%.
In the case of `COc1ccc(C2CC(C(F)(F)F)n3nc(C(=O)O)c(Cl)c3N2)cc1OC` (centres undefined), the displacement turned out to be 2.8%.
As for `Cc1ccc(S(=O)(=O)N2CCN(C(C)C)CC2)cc1`, the displacement came to 10%.
With `CSc1nc2c(c(=O)[nH]1)C(c1ccc(Br)cc1)c1c(nc(SC)[nH]c1=O)O2`, the displacement amounted to 10.4%.
The value for `CCC1(C)Cc2c(sc3[nH]c(=S)n(Cc4ccccc4)c(=O)c23)CO1` (centres undefined) was -10.3%.
For `CCOC(=O)c1c(-c2cc(C)ccc2C)csc1N` the value was -0.4%.
Consider `Cc1[nH]nc(Nc2cccc(C(=O)O)c2)c1[N+](=O)[O-]`, for which the displacement was found to be 12.7%.
For `Cc1ccc(N(CC(=O)NCCSc2ccc(Cl)cc2)S(=O)(=O)c2ccc(F)cc2)cc1`, the displacement was -15.1%.
Turning to `Cc1ccc(S(=O)(=O)NC(=O)Nc2ccc(C)c(Cl)c2)cc1`, the displacement stood at 11.9%.
For the compound `CCCOC(=O)c1cccc(NC(=O)COc2ccc(Br)cc2)c1`, the displacement is 14.6%.
For `CC(C)CC(C(=O)Nc1sc2c(c1C(N)=O)CCC(C)C2)N1C(=O)c2ccccc2C1=O` (centres undefined), the displacement worked out at 6.5%.
On to `CC(=O)OC(OC(C)=O)c1ccc([N+](=O)[O-])s1`, for which the displacement stood at 8.1%.
On to `C=CCc1c(C)nc(SC)nc1Nc1ccc(C(=O)O)cc1`, for which the displacement was -10%.
Regarding `Cc1ccc(/C(N)=N/OC(=O)COc2ccc(Br)cc2)cc1`, the displacement came out at 0.7%.
Turning to `Cc1onc(-c2c(F)cccc2Cl)c1C(=O)Nc1ccc(Br)cc1`, the displacement is -15.1%.
On to `O=S1(=O)CCC(NC(=S)SCCOc2ccccc2OCCO)C1` (centres undefined), for which the displacement is 6.3%.
Regarding `O=[N+]([O-])c1ccccc1-c1ccc(/C=C/c2ccc3ccccc3n2)o1`, the displacement worked out at 97.9%.
As to `CCCC(CCC)C(=O)Nc1ccc2c(c1)N(C(=O)CN1CCOCC1)c1ccccc1CC2`, the displacement is -13.1%.
The value for `COc1ccccc1N1CC=C(c2cccc([N+](=O)[O-])c2)NC1=O` was 9.6%; that for `CC(C)(C)c1ccc(C(=O)Nc2cccc3nsnc23)cc1` was 14.5%.
Regarding `Oc1cccc(/C=N/Nc2nncc(-c3ccccc3)n2)c1`, the displacement is 6.6%.
Consider `COc1ccc(C2/C(=C(/O)c3ccccc3)C(=O)C(=O)N2Cc2ccccc2)cc1OC` (centres undefined), for which the displacement was -1%.
Take `COc1cc(/C=C2/SC(=S)N(C)C2=O)cc([N+](=O)[O-])c1O`: the displacement turned out to be 6.5%.
Consider `O=C(Nc1ccc(N2CCOCC2)cc1)c1ccc(Cl)cc1`, for which the displacement came to 6.6%.
`Cc1ccnc(NS(=O)(=O)c2cc(C(C)(C)C)cc(C(C)(C)C)c2)c1`: the displacement was -13%.
`N#CC1=C(N)Oc2cc(O)c(C=Nc3ccccc3I)cc2C1c1ccccc1` (centres undefined): the displacement is -1.5%.
Regarding `O=C(O)c1ccc(Oc2ccc(NC(=O)C3CCCCC3)cc2)cc1C(=O)O`, the displacement is 4.7%.
As for `CCC(=O)Nc1cc(OC)ccc1OC`, the displacement worked out at 14.2%.
For `COc1cccc2c1NC(c1ccccc1Br)C1CC=CC21` (centres undefined) the value was -4.2%; for `CCOc1ccc(S(=O)(=O)N/N=C/c2c(C)[nH]c(=O)[nH]c2=O)cc1`, -4.5%.

The record behind these values is PubChem BioAssay AID1240 (Sanford-Burnham Center for Chemical Genomics, 2008).
